Target: the molecule itself
Assay: native gel or EMSA

Protein | stoichiometry N
Flag-HA tagged wildtype human TPI1 (guide RNA resistant transgene) (enzyme) not shown | 2
Flag-HA tagged human TPI1 S21A (guide RNA resistant transgene) (enzyme) not shown | 2
